Source: the supplement of paper PMC10126150
Values marked as one replicate rest on one cluster of the flow cell; about a third of the high ones do not repeat.
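Note: ATP exposure 15 min at 22 °C before imaging.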

The sequences below were run on ATP (assay: switch fluorescence ratio, 500 uM ATP over buffer (Cy3 cluster intensity, sum of 5 cycles each) (fold (ratio)); higher = stronger signal-on switching upon ATP binding; sequences stand for … in TCGTCGGCAGCGTCAGATGTGTATAAGAGACAGTTTTTTTTTTTTTTTTTTTTTTTTT…TC). Details: aptamer strand: ATP DNA aptamer (quencher-CACCTGGGGGAGTATTGCGGAGGAAGG + anchor), 100 nM annealed; ATP concentration: 500 uM; one replicate.
In short: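 The quencher-labelled ATP aptamer, at 100 nM, was annealed to Cy3-labelled switching-strand clusters on a modified Illumina MiSeq flow-cell. The clusters were imaged in selection buffer, then after 15 min with 500 uM ATP at 22 °C, and this buffer/ATP cycle ran five times with NaOH stripping and re-annealing between runs. Per-cluster fluorescence ratios, summed target-cycle over summed buffer-cycle Cy3 intensity, were averaged per switch-domain sequence. Clusters outside 100-1000 RFU were excluded.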
In the case of TCCGGGGATC, the switch fluorescence ratio is reported as 1.08.
TCCGGTAAAT gave a switch fluorescence ratio of 1.06.
In the case of TCCGGTGTAT, the switch fluorescence ratio is reported as 1.14.
TCCGTATTCA was tested, and the switch fluorescence ratio was 0.954.
TCCGTG showed a switch fluorescence ratio of 2.29.
Work on TCCGTGATAA yielded a switch fluorescence ratio of 7.25.
TCCGTGATTA showed a switch fluorescence ratio of 1.39.
Work on TCCGTGGTCT yielded a switch fluorescence ratio of 1.11.
With TCCGTGTGC the switch fluorescence ratio was 1.54.
In the case of TCCGTGTGCG, the switch fluorescence ratio is reported as 0.985.
With TCCGTTGACT the switch fluorescence ratio was 1.08.
TCCTAAGGCA was tested, and the switch fluorescence ratio was 1.05.
Work on TCCTAAGTTG yielded a switch fluorescence ratio of 0.997.
TCCTAATTGG gave a switch fluorescence ratio of 0.952.
Sequence TCCTAGCTG has a switch fluorescence ratio of 0.964.
In the case of TCCTAGCTGC, the switch fluorescence ratio is reported as 1.88.
In the case of TCCTAGGAAG, the switch fluorescence ratio is reported as 0.962.
In the case of TCCTAGTTA, the switch fluorescence ratio is reported as 0.979.
TCCTATAGGG was tested, and the switch fluorescence ratio was 1.03.
TCCTATCTG was tested, and the switch fluorescence ratio was 1.8.
TCCTCGGGAA showed a switch fluorescence ratio of 2.35.
Work on TCCTGGCAGT yielded a switch fluorescence ratio of 1.53.
TCCTGTAAAG gave a switch fluorescence ratio of 1.04.
In the case of TCCTGTAGGG, the switch fluorescence ratio is reported as 0.95.
TCCTGTGCAG was tested, and the switch fluorescence ratio was 2.51.
TCCTGTGCGG was tested, and the switch fluorescence ratio was 1.31.
In the case of TCCTTAAGGT, the switch fluorescence ratio is reported as 1.06.
With TCCTTCAATG the switch fluorescence ratio was 1.11.
Sequence TCCTTTGTT has a switch fluorescence ratio of 0.96.
In the case of TCCTTTTCAA, the switch fluorescence ratio is reported as 1.03.
Sequence TCGAAAGATA has a switch fluorescence ratio of 0.999.
With TCGAAAGGAG the switch fluorescence ratio was 0.995.
For TCGAACAGAC, the switch fluorescence ratio was 1.22.
With TCGAACGGCC the switch fluorescence ratio was 1.07.
Work on TCGAACTACG yielded a switch fluorescence ratio of 1.04.
In the case of TCGAAGATAA, the switch fluorescence ratio is reported as 1.05.
TCGAAGGGCA was tested, and the switch fluorescence ratio was 1.04.
TCGAAGTTCT gave a switch fluorescence ratio of 0.969.
With TCGAATAAGT the switch fluorescence ratio was 0.951.
In the case of TCGACACGTA, the switch fluorescence ratio is reported as 1.09.
For TCGACGTACA, the switch fluorescence ratio was 1.36.
Sequence TCGACTCCCC has a switch fluorescence ratio of 2.53.
Work on TCGACTCTTG yielded a switch fluorescence ratio of 0.947.
TCGACTGGCG showed a switch fluorescence ratio of 1.07.
TCGACTTTTG was tested, and the switch fluorescence ratio was 0.96.
TCGAGACATT was tested, and the switch fluorescence ratio was 0.956.
TCGAGACTAC was tested, and the switch fluorescence ratio was 1.19.
Sequence TCGAGAGC has a switch fluorescence ratio of 0.981.
TCGAGATACC showed a switch fluorescence ratio of 1.09.
In the case of TCGAGATTGT, the switch fluorescence ratio is reported as 0.99.
With TCGAGCGGGA the switch fluorescence ratio was 0.998.
TCGAGCTTCC was tested, and the switch fluorescence ratio was 2.5.
For TCGAGCTTGA, the switch fluorescence ratio was 1.04.
TCGAGGAGA showed a switch fluorescence ratio of 0.991.
Work on TCGAGGATTA yielded a switch fluorescence ratio of 1.05.
TCGAGGGCTT showed a switch fluorescence ratio of 1.03.
TCGAGTCAGA gave a switch fluorescence ratio of 1.03.
Sequence TCGAGTGAAG has a switch fluorescence ratio of 1.01.
TCGATACCGT gave a switch fluorescence ratio of 0.985.
In the case of TCGATACGAG, the switch fluorescence ratio is reported as 1.09.
In the case of TCGATAGATG, the switch fluorescence ratio is reported as 0.994.
Work on TCGATGATGA yielded a switch fluorescence ratio of 0.982.
With TCGATGGCCC the switch fluorescence ratio was 1.03.
With TCGATTGATT the switch fluorescence ratio was 0.986.
TCGATTGGA showed a switch fluorescence ratio of 0.98.
TCGCACCATA gave a switch fluorescence ratio of 3.24.
TCGCACCTTT was tested, and the switch fluorescence ratio was 1.07.
For TCGCACTTGT, the switch fluorescence ratio was 1.32.
Sequence TCGCAGAAAT has a switch fluorescence ratio of 0.986.
With TCGCAGCGGA the switch fluorescence ratio was 1.21.
With TCGCAGCGTT the switch fluorescence ratio was 1.2.
For TCGCAGGAAC, the switch fluorescence ratio was 1.9.
TCGCATCGGC gave a switch fluorescence ratio of 1.3.
For TCGCCAACTG, the switch fluorescence ratio was 1.14.
TCGCCGGAGG was tested, and the switch fluorescence ratio was 1.02.
Work on TCGCCGTAAT yielded a switch fluorescence ratio of 1.12.
Work on TCGCCGTGCT yielded a switch fluorescence ratio of 1.04.
In the case of TCGCGCAGGG, the switch fluorescence ratio is reported as 1.
For TCGCGCAGTA, the switch fluorescence ratio was 1.05.
Sequence TCGCGCGACT has a switch fluorescence ratio of 0.934.
In the case of TCGCGCGGT, the switch fluorescence ratio is reported as 0.984.
TCGCGTGTGA was tested, and the switch fluorescence ratio was 1.
For TCGCGTTACA, the switch fluorescence ratio was 1.06.
Work on TCGCGTTTCG yielded a switch fluorescence ratio of 0.973.
With TCGCTACATA the switch fluorescence ratio was 1.14.
TCGCTAGGTG showed a switch fluorescence ratio of 1.
With TCGCTCGGGA the switch fluorescence ratio was 1.03.
Sequence TCGCTGGTTT has a switch fluorescence ratio of 1.06.
TCGGAAACCT was tested, and the switch fluorescence ratio was 3.25.
TCGGAATTTG showed a switch fluorescence ratio of 1.09.
For TCGGACCCCT, the switch fluorescence ratio was 1.18.
TCGGAGGTTA showed a switch fluorescence ratio of 1.6.
Work on TCGGAGTTAT yielded a switch fluorescence ratio of 1.09.
In the case of TCGGATGGCA, the switch fluorescence ratio is reported as 0.838.
With TCGGATGTTA the switch fluorescence ratio was 0.993.
Work on TCGGATTCAG yielded a switch fluorescence ratio of 0.996.
TCGGCCACGT showed a switch fluorescence ratio of 1.01.
TCGGCCTCCA was tested, and the switch fluorescence ratio was 1.31.
TCGGCGCAT showed a switch fluorescence ratio of 1.73.
With TCGGCGCTAT the switch fluorescence ratio was 2.06.
Work on TCGGCTCCCT yielded a switch fluorescence ratio of 1.05.
TCGGGACAGG gave a switch fluorescence ratio of 1.02.
For TCGGGCGGC, the switch fluorescence ratio was 1.01.
Work on TCGGGCTGG yielded a switch fluorescence ratio of 0.965.
TCGGGCTTTA was tested, and the switch fluorescence ratio was 0.939.
Work on TCGGGTATG yielded a switch fluorescence ratio of 1.09.
With TCGGGTCAGC the switch fluorescence ratio was 1.1.
Work on TCGGGTCGTT yielded a switch fluorescence ratio of 1.02.
TCGGTAATTG was tested, and the switch fluorescence ratio was 1.01.
For TCGGTAGCGG, the switch fluorescence ratio was 0.959.
TCGGTTGGTC gave a switch fluorescence ratio of 0.984.
For TCGTAGATCA, the switch fluorescence ratio was 0.941.
TCGTAGGCAG showed a switch fluorescence ratio of 1.27.
TCGTAGGTTA showed a switch fluorescence ratio of 1.01.
For TCGTAGTGAG, the switch fluorescence ratio was 0.995.
In the case of TCGTATACT, the switch fluorescence ratio is reported as 1.62.
With TCGTATAGGA the switch fluorescence ratio was 1.01.
TCGTCACGT showed a switch fluorescence ratio of 0.996.
In the case of TCGTCACTCT, the switch fluorescence ratio is reported as 0.995.
In the case of TCGTCACTGC, the switch fluorescence ratio is reported as 0.986.
Sequence TCGTCAGGCT has a switch fluorescence ratio of 1.07.
In the case of TCGTCCAAAG, the switch fluorescence ratio is reported as 1.11.
Sequence TCGTCGTGCA has a switch fluorescence ratio of 1.02.
TCGTCTGGGA was tested, and the switch fluorescence ratio was 1.04.
Work on TCGTCTTAAA yielded a switch fluorescence ratio of 1.01.
In the case of TCGTGCAGCC, the switch fluorescence ratio is reported as 0.95.
TCGTGCGCTT gave a switch fluorescence ratio of 1.32.
Work on TCGTGGAAGA yielded a switch fluorescence ratio of 1.04.
With TCGTGGGAGG the switch fluorescence ratio was 0.979.
With TCGTGGTGCG the switch fluorescence ratio was 0.969.
TCGTGTTACG showed a switch fluorescence ratio of 0.974.
TCGTTAAGAC was tested, and the switch fluorescence ratio was 1.53.
TCGTTAGTGG gave a switch fluorescence ratio of 0.955.
Work on TCGTTATGGT yielded a switch fluorescence ratio of 1.06.
In the case of TCGTTCAGTG, the switch fluorescence ratio is reported as 0.989.
TCGTTCCACA was tested, and the switch fluorescence ratio was 1.03.
TCGTTGGAGC was tested, and the switch fluorescence ratio was 1.
TCGTTGTGGC showed a switch fluorescence ratio of 0.968.
In the case of TCGTTTCGTA, the switch fluorescence ratio is reported as 0.978.
TCTAAATACG showed a switch fluorescence ratio of 1.13.
TCTAAATCTA showed a switch fluorescence ratio of 0.998.
TCTAACAGCA showed a switch fluorescence ratio of 1.03.
For TCTAACGGGA, the switch fluorescence ratio was 1.05.
Work on TCTAACTTGC yielded a switch fluorescence ratio of 1.1.
TCTAATCAGG was tested, and the switch fluorescence ratio was 0.952.
Sequence TCTAATCAT has a switch fluorescence ratio of 1.02.
For TCTAATCCGC, the switch fluorescence ratio was 1.59.
In the case of TCTAATGCAC, the switch fluorescence ratio is reported as 1.08.
In the case of TCTACGTATT, the switch fluorescence ratio is reported as 1.14.
Sequence TCTACTTTTA has a switch fluorescence ratio of 1.01.
Sequence TCTAGAATAT has a switch fluorescence ratio of 0.963.
TCTAGAATGA showed a switch fluorescence ratio of 0.96.
Work on TCTAGATATC yielded a switch fluorescence ratio of 0.979.
In the case of TCTAGCAGTC, the switch fluorescence ratio is reported as 1.06.
In the case of TCTAGCATTC, the switch fluorescence ratio is reported as 2.25.
Sequence TCTAGCCCAA has a switch fluorescence ratio of 1.02.
TCTAGGCAG gave a switch fluorescence ratio of 0.99.
In the case of TCTAGTAAT, the switch fluorescence ratio is reported as 1.01.
Work on TCTAGTTAAG yielded a switch fluorescence ratio of 0.999.
Work on TCTAGTTTCA yielded a switch fluorescence ratio of 0.977.
For TCTATAAACA, the switch fluorescence ratio was 1.03.
In the case of TCTATCGCTA, the switch fluorescence ratio is reported as 1.8.
TCTATGTCGA gave a switch fluorescence ratio of 0.97.
TCTATGTCGT gave a switch fluorescence ratio of 0.983.
With TCTATGTGGG the switch fluorescence ratio was 0.983.
For TCTCACGTTA, the switch fluorescence ratio was 1.3.
In the case of TCTCAGTGAC, the switch fluorescence ratio is reported as 1.09.
For TCTCATGCTT, the switch fluorescence ratio was 1.04.
Work on TCTCCAACAG yielded a switch fluorescence ratio of 1.38.
TCTCCAATGT showed a switch fluorescence ratio of 1.28.
In the case of TCTCCGTGTG, the switch fluorescence ratio is reported as 1.58.
TCTCCTATTG gave a switch fluorescence ratio of 1.02.
With TCTCCTCAGT the switch fluorescence ratio was 1.5.
With TCTCGAAAAA the switch fluorescence ratio was 1.06.
TCTCGAAGCG was tested, and the switch fluorescence ratio was 1.05.
TCTCGAGTTG showed a switch fluorescence ratio of 1.01.
With TCTCGCCCAC the switch fluorescence ratio was 1.74.
With TCTCGCCCAT the switch fluorescence ratio was 1.07.
TCTCGGCCCG showed a switch fluorescence ratio of 1.
With TCTCGGGGAA the switch fluorescence ratio was 1.22.
TCTCGTCGCA gave a switch fluorescence ratio of 1.12.
Sequence TCTCGTCGCG has a switch fluorescence ratio of 0.993.
In the case of TCTCGTTACC, the switch fluorescence ratio is reported as 1.07.
TCTCTGAACT showed a switch fluorescence ratio of 1.24.
With TCTCTGTAGC the switch fluorescence ratio was 1.44.
TCTCTTCTTT gave a switch fluorescence ratio of 1.04.
TCTCTTGGC was tested, and the switch fluorescence ratio was 1.04.
TCTGAAAGT showed a switch fluorescence ratio of 0.991.
For TCTGACTATA, the switch fluorescence ratio was 1.08.
TCTGAGGATG showed a switch fluorescence ratio of 1.04.
For TCTGAGGGAT, the switch fluorescence ratio was 0.992.
TCTGAGGTGA showed a switch fluorescence ratio of 1.09.
Sequence TCTGAGTTAT has a switch fluorescence ratio of 1.03.
With TCTGATTCTG the switch fluorescence ratio was 0.983.
TCTGATTTTT was tested, and the switch fluorescence ratio was 1.02.
With TCTGCCTGGG the switch fluorescence ratio was 0.998.
In the case of TCTGCGCGCC, the switch fluorescence ratio is reported as 1.01.
TCTGCGGGCG was tested, and the switch fluorescence ratio was 1.03.
For TCTGCTGAGG, the switch fluorescence ratio was 1.01.
For TCTGGATCTA, the switch fluorescence ratio was 1.03.
With TCTGGCAATT the switch fluorescence ratio was 1.55.
